No constants are given. Whether binding was seen depends on the method and setting. For some of these results: Binding seen in cells or lysates may run through a third protein. Some entries that bind do so weakly or less than the wild type. For some of these results: Sequences can lack the tags named with a protein.

Amino acid sequences for entries named in this document (tags omitted).
UniProt Q4ZIN3: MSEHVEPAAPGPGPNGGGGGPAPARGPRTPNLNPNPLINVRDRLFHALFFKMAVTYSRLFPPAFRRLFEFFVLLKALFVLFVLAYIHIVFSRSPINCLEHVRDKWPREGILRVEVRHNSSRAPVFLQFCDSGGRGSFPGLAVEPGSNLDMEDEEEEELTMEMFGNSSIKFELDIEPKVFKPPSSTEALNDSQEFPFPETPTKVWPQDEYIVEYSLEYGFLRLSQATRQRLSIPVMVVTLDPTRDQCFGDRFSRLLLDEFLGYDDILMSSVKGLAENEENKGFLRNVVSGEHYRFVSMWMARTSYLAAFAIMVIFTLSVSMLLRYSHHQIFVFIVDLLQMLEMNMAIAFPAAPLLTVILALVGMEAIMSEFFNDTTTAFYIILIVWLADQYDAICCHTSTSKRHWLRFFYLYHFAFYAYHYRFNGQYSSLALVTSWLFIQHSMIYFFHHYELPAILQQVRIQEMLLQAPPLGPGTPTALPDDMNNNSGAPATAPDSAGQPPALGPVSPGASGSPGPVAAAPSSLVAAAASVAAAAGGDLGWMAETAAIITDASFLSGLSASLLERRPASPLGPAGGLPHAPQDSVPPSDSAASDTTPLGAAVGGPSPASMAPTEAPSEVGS
UniProt Q99942: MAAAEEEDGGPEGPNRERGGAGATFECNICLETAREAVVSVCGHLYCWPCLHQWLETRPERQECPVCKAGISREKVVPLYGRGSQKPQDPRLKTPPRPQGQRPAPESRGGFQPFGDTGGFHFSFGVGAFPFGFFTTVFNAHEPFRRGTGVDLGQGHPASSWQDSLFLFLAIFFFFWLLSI
UniProt Q71RG4: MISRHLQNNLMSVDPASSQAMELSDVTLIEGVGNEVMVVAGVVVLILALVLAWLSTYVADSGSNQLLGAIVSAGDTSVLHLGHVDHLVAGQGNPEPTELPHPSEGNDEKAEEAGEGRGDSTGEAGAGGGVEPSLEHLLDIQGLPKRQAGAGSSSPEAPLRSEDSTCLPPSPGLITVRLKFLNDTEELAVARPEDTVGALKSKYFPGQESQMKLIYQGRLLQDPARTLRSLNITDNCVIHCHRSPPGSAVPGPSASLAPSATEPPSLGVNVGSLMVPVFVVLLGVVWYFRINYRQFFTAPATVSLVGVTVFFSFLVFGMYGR
UniProt Q86TM6: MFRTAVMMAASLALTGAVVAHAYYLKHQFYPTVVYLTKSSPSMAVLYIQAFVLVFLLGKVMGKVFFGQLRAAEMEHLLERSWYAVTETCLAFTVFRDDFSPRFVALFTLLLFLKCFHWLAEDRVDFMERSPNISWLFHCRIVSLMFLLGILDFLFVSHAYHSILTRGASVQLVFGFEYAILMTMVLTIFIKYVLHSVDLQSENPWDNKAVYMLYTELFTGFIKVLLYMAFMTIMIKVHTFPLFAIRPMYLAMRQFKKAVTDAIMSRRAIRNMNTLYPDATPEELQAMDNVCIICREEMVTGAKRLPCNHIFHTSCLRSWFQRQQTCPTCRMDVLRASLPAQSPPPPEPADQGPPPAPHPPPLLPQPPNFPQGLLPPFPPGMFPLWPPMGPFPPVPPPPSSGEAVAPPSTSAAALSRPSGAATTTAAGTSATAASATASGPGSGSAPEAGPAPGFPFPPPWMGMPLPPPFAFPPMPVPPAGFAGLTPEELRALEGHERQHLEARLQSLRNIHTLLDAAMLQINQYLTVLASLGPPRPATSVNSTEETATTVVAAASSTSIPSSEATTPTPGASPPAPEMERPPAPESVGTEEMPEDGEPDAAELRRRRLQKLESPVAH

One test has as its target T1, 3xFLAG-RNF185 (human) (UniProt Q96GF1).
T1 sequence: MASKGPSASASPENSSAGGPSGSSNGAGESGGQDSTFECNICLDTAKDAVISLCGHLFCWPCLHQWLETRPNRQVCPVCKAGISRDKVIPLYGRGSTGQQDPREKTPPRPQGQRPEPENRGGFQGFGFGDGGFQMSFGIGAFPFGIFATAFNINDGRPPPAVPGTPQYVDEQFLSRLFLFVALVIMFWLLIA
Briefly: co-IP; sequential immunoprecipitation from RNF185/MBRL double-KO cells co-transduced with FLAG-RNF185 and MBRL-SBP.

Test [1] concerns the target endogenously tagged Membralin-mNeonGreen (human (endogenous in HeLa)) (UniProt Q4ZIN3). Briefly: co-IP; mNG-Trap pull-down of endogenously tagged MBRL-mNG from HeLa lysate (1% DMNG), western blotting; HRD1-mNG as specificity control.
For test [2] the target is unchanged. As to the kind of experiment: co-IP; mNG-Trap immunoprecipitation of MBRL-mNG from size exclusion fraction 9 of solubilised HeLa membranes, western blotting. On the technique in general: SEC sorts molecules by how far they enter the pores of the column.
In test [3] the target is MBRL tagged with streptavidin binding peptide (human) (UniProt Q4ZIN3). Briefly: co-IP; sequential immunoprecipitation from RNF185/MBRL double-KO cells co-transduced with FLAG-RNF185 and MBRL-SBP.
Another test has as its target MBRL-3xFLAG (human) (UniProt Q4ZIN3). Briefly: co-IP; co-precipitation of MBRL with RNF185 and TMUBs in cells lacking TMUBs or RNF185 (Figure S4H; the bait was not shown).
The target of test [4] is endogenously tagged Membralin-mNeonGreen (human (endogenous in HeLa)) (UniProt Q4ZIN3). As to the kind of experiment: SEC; crude membranes of MBRL-mNG HeLa cells solubilised in 1% DDM + 0.1% CHS, Superose 6 10/300 GL in 50 mM Tris-HCl pH 7.4, 150 mM NaCl, 0.03% DDM, 0.003% CHS; fractions analysed by western blotting.
For test [5] the target is unchanged. Briefly: co-IP; mNG-Trap pull-down of endogenously tagged MBRL-mNG from HeLa lysate (1% DMNG), western blotting; HRD1-mNG as specificity control. This is another data set of the same source. On the technique in general: In western blotting, separated proteins are transferred to a membrane and probed.

As to “MBRL tagged with streptavidin binding peptide (from UniProt Q4ZIN3 1-620)”, the binding result with 3xFLAG-RNF185 (human) is “binds”.

For the molecule RNF5 (from UniProt Q99942 1-180), the binding result in test [1] and in test [2] was “no binding” throughout.

Regarding TMUB2 (from UniProt Q71RG4 1-321), the binding entry (in test [3]; in test [1]; with MBRL-3xFLAG (human); in test [2]; in test [4]) was “binds” in each case.

Consider “endogenous HRD1 (from UniProt Q86TM6 1-617)”, for which the binding result in test [2] is “no binding”.

With “endogenously tagged Membralin-mNeonGreen (from UniProt Q4ZIN3 1-620)”, in test [1], the binding entry is listed as “binds”.

B1: endogenous RNF185 (protein, UniProt Q96GF1 1-192)
chain: T1 sequence
For B1, the binding result (with MBRL-3xFLAG (human); in test [5]; in test [2]; in test [4]) was “binds” each time.

B2: Erlin2 (protein, UniProt O94905 1-339)
chain: MAQLGAVVAVASSFFCASLFSAVHKIEEGHIGVYYRGGALLTSTSGPGFHLMLPFITSYKSVQTTLQTDEVKNVPCGTSGGVMIYFDRIEVVNFLVPNAVYDIVKNYTADYDKALIFNKIHHELNQFCSVHTLQEVYIELFDQIDENLKLALQQDLTSMAPGLVIQAVRVTKPNIPEAIRRNYELMESEKTKLLIAAQKQKVVEKEAETERKKALIEAEKVAQVAEITYGQKVMEKETEKKISEIEDAAFLAREKAKADAECYTAMKIAEANKLKLTPEYLQLMKYKAIASNSKIYFGKDIPNMFMDSAGSVSKQFEGLADKLSFGLEDEPLETATKEN
As to B2, the binding result in test [5] is listed as “binds”.

B3: Erlin1 (protein, UniProt O75477 1-348)
chain: MNMTQARVLVAAVVGLVAVLLYASIHKIEEGHLAVYYRGGALLTSPSGPGYHIMLPFITTFRSVQTTLQTDEVKNVPCGTSGGVMIYIDRIEVVNMLAPYAVFDIVRNYTADYDKTLIFNKIHHELNQFCSAHTLQEVYIELFDQIDENLKQALQKDLNLMAPGLTIQAVRVTKPKIPEAIRRNFELMEAEKTKLLIAAQKQKVVEKEAETERKKAVIEAEKIAQVAKIRFQQKVMEKETEKRISEIEDAAFLAREKAKADAEYYAAHKYATSNKHKLTPEYLELKKYQAIASNSKIYFGSNIPNMFVDSSCALKYSDIRTGRESSLPSKEALEPSGENVIQNKESTG
Take B3: the binding entry in test [5] is given as “binds”.
